Reference: PubChem BioAssay AID1030 (National Center for Advancing Translational Sciences (NCATS), 2008)
Several values for one entry are separate records, joined by “and”; a condition that tells them apart may be missing. Identical values can stand only once. Out of some 220,000 compounds screened, about 16,000 (7.3%) were called active. The shares of active, inactive and inconclusive entries below differ from those in the screen. Calls follow the shape of the dose curve; as a rule, active = well fitted inhibition curve with a large enough effect (not every such curve was filed as active); inconclusive = small, poorly fitted or top-dose-only effect, or another doubt; inactive = no such curve, though single readings can be large or run the other way. Potencies beside an inconclusive call are fits to weak or partial responses and may not hold up.

Target: Aldehyde dehydrogenase 1A1 (Homo sapiens) (UniProt P00352)
Assay: qHTS Assay for Inhibitors of Aldehyde Dehydrogenase 1 (ALDH1A1);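 as to activity, negative = inhibition: plate controls were no enzyme wells and a reference inhibitor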
Conditions: Purified ALDH1A1, NADH fluorescence, propionaldehyde substrate; series mostly up to 75.3 µM
Potency is read from the fitted curve at half-maximal effect; tags tell the direction and shape of the fitted curve.

Chain of UniProt P00352 (P00352 whole entry, looked up): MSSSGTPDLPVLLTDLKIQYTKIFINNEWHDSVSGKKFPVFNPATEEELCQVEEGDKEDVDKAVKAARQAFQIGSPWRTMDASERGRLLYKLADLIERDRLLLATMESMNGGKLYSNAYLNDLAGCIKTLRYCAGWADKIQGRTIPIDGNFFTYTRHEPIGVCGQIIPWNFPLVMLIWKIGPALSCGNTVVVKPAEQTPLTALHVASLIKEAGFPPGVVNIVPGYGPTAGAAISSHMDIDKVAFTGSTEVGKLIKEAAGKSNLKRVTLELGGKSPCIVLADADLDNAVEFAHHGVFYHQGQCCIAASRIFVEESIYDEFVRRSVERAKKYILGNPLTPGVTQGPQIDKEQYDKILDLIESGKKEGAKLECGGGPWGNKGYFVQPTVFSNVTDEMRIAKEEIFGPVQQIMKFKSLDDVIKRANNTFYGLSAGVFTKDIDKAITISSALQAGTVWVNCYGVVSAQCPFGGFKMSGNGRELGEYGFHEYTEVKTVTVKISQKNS

Potency, inconclusive:
COc1ccccc1NC(=O)CN1CCSc2ccccc21 39.8 µM [inhibitor, single point], COc1ccc(CN(C)CC(=O)Nc2sc3c(c2C#N)CCC3)c(OC)c1 39.8 µM [inhibitor, single point], O=C(CSc1cccc[n+]1[O-])C12CC3CC(CC(C3)C1)C2 39.8 µM [inhibitor, single point], CCc1ccc(-c2cc(C(F)(F)F)n3nc(C(=O)Nc4c(C)nn(Cc5ccccc5C)c4C)cc3n2)s1 25.1 µM [inhibitor, partial curve], Cn1c(=O)c(C(=O)COC(=O)c2cc(-c3ccco3)nc3ccccc23)c(N)n(CC2CC2)c1=O 17.8 µM [inhibitor, partial curve] and 12.6 µM [inhibitor, partial curve], CN(CCC#N)c1ccc(/C=C(\C#N)c2ccccn2)cc1 28.2 µM [inhibitor, single point], CNc1ccnc(-c2ccccc2OC)n1 44.7 µM [inhibitor, single point], COc1ccccc1N1C(=O)C2ON(c3ccccc3)C(c3ccc(N(C)C)cc3)C2C1=O (centres undefined) 31.6 µM [inhibitor, single point], COc1c(Cl)cc(Cl)cc1/C=N/n1cnnc1 31.6 µM [inhibitor, single point], Fc1ccc2c(c1)/C(=N/Nc1ccccn1)CCS2 0.112 µM [inhibitor, full curve, poor fit], N#CCCn1c(-c2nonc2NC(=O)c2ccccc2Cl)nc2ccccc21 22.4 µM [inhibitor, partial curve], N#Cc1c(N)nc(SCC(=O)C23CC4CC(CC(C4)C2)C3)c(C#N)c1-c1ccc(Cl)cc1 17.8 µM [inhibitor, partial curve], Cc1ccc(CNC(=O)C23CN(Cc4ccccc4)CC2C(c2cccc([N+](=O)[O-])c2)=NO3)cc1 (centres undefined) 20 µM [inhibitor, partial curve], CCc1cc(=O)oc2c(CN3CCN(C)CC3)c(O)c(Cl)cc12 3.16 µM [inhibitor, partial curve], O=C1Nc2ccccc2N2CCCC12 (centres undefined) 35.5 µM [inhibitor, single point], CCN1CCCC1CNc1ncnc2c1[nH]c1ccc(F)cc12 (centres undefined) 35.5 µM [inhibitor, single point], O=C1C=C(N(CCO)Cc2ccccc2)c2ccccc2C1=O 22.4 µM [inhibitor, partial curve], Cc1c(CNCc2cccs2)c(C(=O)O)c(C)n1Cc1ccccc1 20 µM [inhibitor, single point], CCCC(=O)c1c(NC(C)C)cc(C)oc1=O 14.1 µM [inhibitor, partial curve], CCCCCCn1c(C)nc2c(c1=O)c1nc3ccccc3nc1n2/N=C/c1ccco1 4.47 µM [inhibitor, partial curve], O=C(NCCN1CCCC1)C1(S(=O)(=O)c2ccc(Cl)cc2)CC1 28.2 µM [inhibitor, single point], CCN(CC)C(=O)C1CCCN(C/C(C)=C/c2ccccc2)C1 (centres undefined) 17.8 µM [inhibitor, partial curve], Cc1ccc(C)c2[nH]c(=O)c(C(c3nnnn3C(C)(C)C)N3CC=C(c4ccc(F)cc4)CC3)cc12 (centres undefined) 39.8 µM [inhibitor, single point], Cc1ccc(S(=O)(=O)NN2C(=O)/C(=C/c3ccccn3)SC2=S)cc1 39.8 µM [inhibitor, single point], CCNc1ncc2nc(CCc3ccccc3)c(=O)n(C)c2n1 15.8 µM [inhibitor, partial curve], CC(C)c1ccccc1OCC(=O)NC1CCCc2ccccc21 (centres undefined) 8.91 µM [inhibitor, partial curve], CCc1nc(-c2ccccc2)c2ccccn12 39.8 µM [inhibitor, single point], Cc1ccc(SCC(=O)NN=C2CCN(C)CC2)cc1 8.91 µM [inhibitor, full curve], COC(=O)c1ccc(CSc2nc3scc(-c4cccs4)c3c(=O)[nH]2)o1 35.5 µM [inhibitor, single point], c1ccc2c(c1)sc1nnnn12 39.8 µM [inhibitor, partial curve, poor fit], CC(=O)Nc1ccc(SCC(=O)N(CCC#N)c2ccc(C)cc2)cc1 28.2 µM [inhibitor, single point], Clc1cccc(-c2cc3nc4c(c(N5CCOCC5)n3n2)CCCC4)c1 35.5 µM [inhibitor, partial curve], COc1ccc(N2CCN(C(=O)c3ccc4c(=O)n(CC5CCCO5)c(=O)[nH]c4c3)CC2)cc1 (centres undefined) 25.1 µM [inhibitor, partial curve], O=C(CCn1cccc1)N1CCc2ccccc21 39.8 µM [inhibitor, single point], CC(=O)Cc1nsc(NC(=O)c2ccc(-c3ccccc3Cl)o2)n1 25.1 µM [inhibitor, partial curve], NC(=S)N/N=C/c1ccc(Br)o1 39.8 µM [inhibitor, single point], O=C(c1ccccc1)N1CCN(Cc2ccccc2)CC1 39.8 µM [inhibitor, single point], COc1cccc(-n2c(CN3CCN(c4cccc(C)c4)C(C)C3)nc3ccc([N+](=O)[O-])cc3c2=O)c1 (centres undefined) 39.8 µM [inhibitor, single point], CCc1ccc(CN2CCN(C(=O)c3cccc(OC)c3OC)CC2)cc1 25.1 µM [inhibitor, single point], COC(=O)c1ccccc1NC(=O)CN1CCC(C)CC1 17.8 µM [inhibitor, partial curve], CC1(C)c2ssc(=S)c2-c2ccccc2N1C(=O)CSC1=NCCS1 28.2 µM [inhibitor, partial curve, poor fit], Cc1cc(C)cc(NC(=O)COc2ccc3c(C)c(Cc4ccccc4)c(=O)oc3c2)c1 25.1 µM [inhibitor, partial curve], O=C(N1CCCCC1)C1(c2ccccc2)CCOCC1 28.2 µM [inhibitor, single point], COc1ccc(Oc2ncc3ncc(=O)n(Cc4ccc(F)cc4)c3n2)cc1 28.2 µM [inhibitor, partial curve]

Potency, inactive:
COc1ccccc1-c1cc(C(=O)NCc2ccco2)no1, CCn1c(SCC(=O)Nc2nc(C)c(C(=O)OC)s2)nnc1C(C)C, O=[N+]([O-])c1ccc(COc2ccc(-c3[nH]ncc3-c3ccccc3)c(O)c2)cc1, COc1ccc(-c2noc(-c3ccccc3C(=O)NCC3CCCO3)n2)cc1 (centres undefined), CCOc1c(Cl)cc(CNCc2ccncc2)cc1OC, c1ccc2c(N3CCCCCC3)nc(-c3ccncc3)nc2c1, O=C(NC(=S)NNS(=O)(=O)c1ccccc1)c1ccccc1[N+](=O)[O-], C=C1c2cccc(O)c2C(O)=C2C(=O)[C@]3(O)C(O)=C(C(N)=O)C(=O)C(N(C)C)C3C(O)C12 (some centres undefined), CCOC(=O)c1cn(CC(=O)Nc2cccc(F)c2)nn1, Cc1occc1C(=O)NCc1ccco1, CN1C(=O)c2ccccc2C(C(=O)O)C1c1cn(C)c2ccccc12 (centres undefined), O=C(CCSCc1ccc(Cl)cc1)NCc1ccco1, O=C(CSc1nc2nn(-c3ccccc3)c(=O)c-2c2n1CCCCC2)NCCc1ccccc1, Cn1sc(NC(=O)c2cccc(Cl)c2)nc1=O, O=C(c1cc2ccccc2o1)N1CCCC1, NC(Cc1ccc(Oc2ccc(O)cc2)cc1)C(=O)O (centres undefined), O=C(Nc1cccc([N+](=O)[O-])c1)Nc1ccc2c(c1)OCCO2, CC1=C(C(=O)N2CCOCC2)C(c2c(F)cccc2F)NC(=O)N1 (centres undefined), CC(=O)Oc1c(C)cc(O)c2ccccc12, COc1cccc(CNCCO)c1OCc1ccc(Cl)cc1

Potency, active:
CSc1cccc(NC(=O)Cn2cccc2)c1 0.631 µM, COc1ccc(C(=O)NC(=S)NNC(=O)CNC(=O)C2CCCCC2)cc1 22.4 µM, O=C(CSc1nc2ccccc2c(=O)n1CCC(=O)N1CCCCC1)NCc1ccccc1 8.91 µM, Nc1c(C(=O)NC2CC2)sc2nc3c(c(-c4ccco4)c12)CC/C3=C/c1ccco1 15.8 µM, COC(=O)/C=C/C(=O)N1CCN(c2cccc(Cl)c2)CC1 10 µM, COc1cc(OC)cc(C(=O)Nc2ccc(S(=O)(=O)Nc3cc(C)nc(C)n3)cc2)c1 5.01 µM, O=C(NCc1ccc2c(c1)OCO2)C1CCN(S(=O)(=O)c2cccs2)CC1 0.316 µM, CCOc1ccc(/C=C2\SC(=S)N(Nc3ccccc3)C2=O)cc1OC 3.16 µM, O=C(Cc1nc(-c2ccc([N+](=O)[O-])cc2)cs1)Nc1ccccc1 8.91 µM

activity, negative = inhibition, inactive:
O=C(O)CSc1n[nH]c(=O)[nH]c1=O -2.39% [at 13.5 µM]
